Test results as given in PubChem BioAssay AID588591 (National Center for Advancing Translational Sciences (NCATS), 2011).
Out of some 390,000 compounds screened, about 4,700 (1.2%) were called active. The shares of active, inactive and inconclusive entries below differ from those in the screen. Calls follow the shape of the dose curve; as a rule, active = well fitted inhibition curve with a large enough effect; inconclusive = small, poorly fitted or top-dose-only effect, or another doubt; inactive = no such curve, though single readings can be large or run the other way. Where the call is inconclusive, the potency comes from a doubtful curve fit.

Each compound was assayed against DNA polymerase eta (Homo sapiens) (UniProt Q9Y253) (assay: qHTS for Inhibitors of Polymerase Eta). Details: recombinant Pol eta, fluorescent DNA replication assay; series mostly up to 114 µM.
Chain of UniProt Q9Y253 (Q9Y253 whole entry, looked up): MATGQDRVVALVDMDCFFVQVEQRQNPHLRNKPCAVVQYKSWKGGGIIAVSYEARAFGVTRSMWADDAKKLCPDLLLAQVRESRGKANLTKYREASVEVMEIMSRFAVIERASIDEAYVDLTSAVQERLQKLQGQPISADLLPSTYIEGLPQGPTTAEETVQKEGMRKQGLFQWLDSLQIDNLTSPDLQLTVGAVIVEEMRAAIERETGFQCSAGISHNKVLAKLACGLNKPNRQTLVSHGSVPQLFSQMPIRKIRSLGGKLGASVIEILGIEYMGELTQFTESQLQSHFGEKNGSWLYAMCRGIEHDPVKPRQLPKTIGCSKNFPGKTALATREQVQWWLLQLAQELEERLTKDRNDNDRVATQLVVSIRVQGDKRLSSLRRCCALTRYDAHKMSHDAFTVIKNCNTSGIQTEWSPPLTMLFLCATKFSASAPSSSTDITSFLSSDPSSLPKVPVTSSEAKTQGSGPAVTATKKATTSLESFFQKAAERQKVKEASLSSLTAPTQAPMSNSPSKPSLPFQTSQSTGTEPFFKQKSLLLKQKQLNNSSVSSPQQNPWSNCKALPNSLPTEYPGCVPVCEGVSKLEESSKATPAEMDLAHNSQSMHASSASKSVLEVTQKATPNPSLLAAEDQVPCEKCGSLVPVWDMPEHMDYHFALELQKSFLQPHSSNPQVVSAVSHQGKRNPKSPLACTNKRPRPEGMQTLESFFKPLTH
Procedure, shortened: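 Pol eta at 10 nM preincubated with compounds 15 min at room temperature; reaction started with fluorescent substrate (50 nM final) and read kinetically at 0 and 10 min.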
Potency is read from the fitted curve at half-maximal effect; tags tell the direction and shape of the fitted curve.

Row | SMILES | Potency
1 | C=C(C)C(=O)Nc1ccc2c(c1)OCCOCCOCCO2 | active: 22.4 µM
2 | Cc1ccc(C)c(CN2C(=O)C3(c4ccccc42)N(c2cccc(C(F)(F)F)c2)C(=O)CS3(=O)=O)c1 (stereo not given) | inconclusive: 100 µM [inhibitor, partial curve, poor fit]
3 | CCCn1c(N)c(N(CCOC)C(=O)c2cc3ccccc3cc2OC)c(=O)[nH]c1=O | inactive
4 | CCC(=O)Nc1ccc(C(=O)CSc2nc3ccc(C)cc3[nH]2)cc1 | inconclusive: 15.8 µM [inhibitor, partial curve]
5 | COC(=O)c1ccc(NC(=O)CCc2nnc3ccc(NCc4ccco4)nn23)cc1 | inconclusive: 22.4 µM [inhibitor, full curve]
6 | COc1cc(/C=N/Nc2ccc(S(N)(=O)=O)cc2[N+](=O)[O-])cc(OC)c1O | inconclusive: 39.8 µM [inhibitor, partial curve, poor fit]
7 | CCN(CCO)c1ccc(-n2c(N)c(C(=O)OC)c3nc4ccccc4nc32)cc1 | inconclusive: 28.2 µM [inhibitor, partial curve, poor fit]
8 | Cc1ccc(C)c(Cn2c(=O)n(Cc3ccc4c(c3)OCO4)c(=O)c3oc4ccccc4c32)c1 | inconclusive: 79.4 µM [inhibitor, partial curve, poor fit]
9 | CC(C)(C)C1CCc2c(sc(NC(=O)C3CC=CCC3C(=O)O)c2C#N)C1 (stereo not given) | inconclusive: 15.8 µM [inhibitor, full curve, poor fit]
10 | Cc1cc2nc(-c3ccc(OCc4ccc(F)cc4)cc3)cc(C(F)(F)F)n2n1 | inactive
11 | CN(C)c1cc2c(Nc3ccc4c(cnn4Cc4ccccc4)c3)ncnc2cn1 | inconclusive: 28.2 µM [inhibitor, partial curve]
12 | CCc1nnc2c(NCCc3ccc(OC)c(OC)c3)nc3ccccc3n12 | inconclusive: 89.1 µM [inhibitor, partial curve, poor fit]
13 | CCOc1cccc(CNc2ccc(O)cc2)c1OCc1ccccc1Cl | inconclusive: 79.4 µM [inhibitor, single point]
14 | Cc1ccc(NC(=O)CN2C(=O)COc3ccc(S(=O)(=O)N4CCCCCC4)cc32)cc1C | inconclusive: 50.1 µM [inhibitor, partial curve, poor fit]
15 | CC(=O)Nc1ccc(NC(=O)CCc2nc3sc4c(c3c(=O)[nH]2)CCCC4)cc1 | inconclusive: 17.8 µM [inhibitor, full curve, poor fit]
16 | CC(=O)c1c(C)[nH]c(C(=O)OCC(=O)Nc2ncc(Cl)c(C)c2Cl)c1C | active: 89.1 µM
17 | COC(=O)c1c(NC(=O)COc2cc(C)c(Cl)c(C)c2)sc2c1CCCC2 | inactive
18 | CN(C)S(=O)(=O)c1ccc(/C(O)=C2/C(=O)C(=O)N(CCN3CCCCC3)C2c2cccnc2)cc1 (stereo not given) | inconclusive: 89.1 µM [inhibitor, partial curve, poor fit]
19 | O=C(COC(=O)/C=C/c1ccc(Br)o1)NC1CCCCC1 | inconclusive: 50.1 µM [inhibitor, partial curve]
20 | CC(C)(C)N/N=C/c1cc(Cl)cc([N+](=O)[O-])c1O | inconclusive: 3.98 µM [inhibitor, partial curve, poor fit]

Row | SMILES | Potency
21 | COc1ccc(C(=O)NC(=S)Nc2ccccc2F)cc1 | inactive
22 | Cc1ccnc(NC(=O)CCC(=O)c2cccs2)c1 | inconclusive: 50.1 µM [inhibitor, partial curve, poor fit]
23 | COc1c(N2CCN(C(=S)NCc3ccccc3)C(C)C2)c(F)cc2c(=O)c(C(=O)O)cn(C3CC3)c12 (stereo not given) | active: 31.6 µM
24 | CCSc1ccc([C@@H]2[C@H]3C(=O)N(CC)C(=O)[C@H]3[C@]3(C(=O)OC)CCCCN23)cc1 | inconclusive: 56.2 µM [inhibitor, partial curve, poor fit]
25 | COC(=O)C(CC(=O)c1ccc(Cl)cc1)c1ccc(C)cc1 (stereo not given) | inconclusive: 79.4 µM [inhibitor, partial curve, poor fit]
26 | CCN=C1S/C(=C\c2ccc(-c3cccc(C(=O)O)c3)o2)C(=O)N1CC | active: 20 µM
27 | COC(=O)c1sccc1NC(=O)Nc1cc(OC)ccc1OC | inconclusive: 56.2 µM [inhibitor, partial curve, poor fit]
28 | CCOc1cc(C2C(C#N)=C(N)OC3=C2C(=O)CC(C)(C)C3)cc([N+](=O)[O-])c1O (stereo not given) | inactive
29 | Cc1ccnc(N2C(=O)c3cccc4c([N+](=O)[O-])ccc(c34)C2=O)c1 | inconclusive: 89.1 µM [inhibitor, single point]
30 | Cc1ccc(N=Cc2cc(Cc3ccccc3Cl)cc([N+](=O)[O-])c2O)c(O)c1 | active: 50.1 µM
31 | O=C1c2cccc3c(O)ccc(c23)C(=O)N1Cc1ccccc1 | inconclusive: 22.4 µM [inhibitor, partial curve, poor fit]
32 | Cc1cccn2c(=O)c3cc(C(=O)NCCc4ccccc4)c(=N)n(CCCn4ccnc4)c3nc12 | inconclusive: 31.6 µM [inhibitor, partial curve]
33 | CCCCOc1ccc(C2OC34CCCCC3C(C#N)(C#N)C2(C#N)C(=N)O4)cc1 (stereo not given) | inconclusive: 35.5 µM [inhibitor, single point]
34 | Nc1nnnn1/N=C/c1ccccc1C(F)(F)F | inactive
35 | COc1ccc(C[C@H]2CN3C(=NC[C@H]3C)N2CCNC(=O)c2ccc(C)c(Br)c2)cc1 | inconclusive: 89.1 µM [inhibitor, partial curve, poor fit]
36 | O=C1C=C(Nc2cccnc2)c2ccccc2C1=O | active: 31.6 µM
37 | O=C(CN1C(=O)C2CCCCC2C1=O)Nc1nc(-c2ccccn2)cs1 (stereo not given) | inconclusive: 25.1 µM [inhibitor, partial curve, poor fit]
38 | CCC1CN(C(=O)N2CCC(C(=O)NCCC3=CCCCC3)CC2)c2cc(C)ccc2O1 (stereo not given) | inactive
39 | COc1ccc(/C=N/Nc2nc3ccccc3c(=O)n2-c2ccccc2)cc1OC | inconclusive: 28.2 µM [inhibitor, single point]
40 | NC(=O)Cn1c(=O)n(Cc2ccco2)c(=O)c2c3c(sc21)CCCCC3 | active: 39.8 µM
